# Results: PubChem BioAssay AID2675 (National Center for Advancing Translational Sciences (NCATS), 2010)
# Hit rate of the full screen: of about 280,000 compounds, about 100 (0.036%) were called active. Inconclusive results, whose numbers are uncertain, are shown with a selection of clear calls. The call rests on the fitted dose curve; in most records, active means well fitted inhibition curve with a large enough effect in the signal ratio, with a control signal flat (not every such curve was filed as active); inconclusive means small, poorly fitted or top-dose-only effect, or effect the other way, or a change in a side signal; inactive means no such curve, though single readings can be large or run the other way; the % refers to the signal ratio. Potencies beside an inconclusive call are fits to weak or partial responses and may not hold up. “Side channel” marks fits to a control or component signal instead of the main read-out.
# Target: Muscleblind-like protein 1 (Homo sapiens) (UniProt Q9NR56)
# Test: qHTS Assay for Inhibitors of MBNL1-poly(CUG) RNA binding
# Details: TR-FRET MBNL1-His/biotin-(CUG)12 binding, 665/545 ratio; activity change, negative = inhibition: at 57.5 µM (top of the series)
# Procedure, shortened: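 TR-FRET between His-tagged MBNL1 and biotin-(CUG)12 RNA, detected with Tb anti-His antibody (0.055 ng/ul) and streptavidin-XL665 (5 nM), 60 min at room temperature. Compounds titrated 92 nM to 58 uM; 665/545 nm ratio normalized to buffer and complex controls.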
# On the % scale 0 is the no-effect control and ±100 the full control effect; potency means the concentration at half of the fitted maximal effect; tags describe the fitted curve by direction and shape or compound fluorescence and quenching.
# Sequence of UniProt Q9NR56 (Q9NR56 whole entry, looked up): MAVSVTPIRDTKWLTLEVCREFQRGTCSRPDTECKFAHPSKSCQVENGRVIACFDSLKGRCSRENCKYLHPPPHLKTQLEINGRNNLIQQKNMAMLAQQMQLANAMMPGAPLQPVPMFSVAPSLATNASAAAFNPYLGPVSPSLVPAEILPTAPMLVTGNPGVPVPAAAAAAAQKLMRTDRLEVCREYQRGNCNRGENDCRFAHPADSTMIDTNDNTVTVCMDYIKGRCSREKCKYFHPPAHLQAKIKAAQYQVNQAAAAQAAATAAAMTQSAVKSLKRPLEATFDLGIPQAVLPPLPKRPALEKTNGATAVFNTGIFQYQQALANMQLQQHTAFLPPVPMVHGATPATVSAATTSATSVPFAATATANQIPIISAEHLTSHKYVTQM
Structure (SMILES),Potency,"activity change, negative = inhibition"
COc1ccc(/C=N/n2cnnc2SCc2ccc(OC)cc2)cc1,inactive,
CC(=O)Nc1ccc(NC(=O)C(C)OC(=O)c2ccccc2C(=O)c2ccc(Cl)c([N+](=O)[O-])c2)cc1 (stereo not drawn),"inconclusive: 11.2 µM [quencher, side channel, partial curve]",
N=c1oc2ccccc2cc1C(=O)N/N=C/c1ccccc1,"inconclusive: 11.2 µM [quencher, side channel, partial curve]",
Cc1ccc(Nc2nc(N)nc(CN3CCN(Cc4ccc5c(c4)OCO5)CC3)n2)cc1Cl,inactive,
CCCC(=O)OC1CC(C)N(C(=O)c2ccccc2)c2ccc(C)cc21 (stereo not drawn),"inconclusive: 1.78 µM [fluorescent, side channel, full curve]",
Cc1onc(-c2c(Cl)cccc2Cl)c1C(=O)c1c[nH]c(C(=O)NCCCN2CCOCC2)c1,"inconclusive: 79.4 µM [inhibitor, single point]",
CC(C)C(NC(=O)/C=C/c1cccc([N+](=O)[O-])c1)C(C)C,"inconclusive: 10 µM [quencher, side channel, partial curve]",
COC(=O)CCC(=O)OC1(C)C(=O)C2=CN(CCCCO)C(c3ccc(OC)cc3)=CC2=C(Br)C1=O (stereo not drawn),"inconclusive: 31.6 µM [quencher, side channel, partial curve]",
N#CC1=C2SCC(O)(c3ccccc3)N2C(=O)CC1c1ccccc1F (stereo not drawn),"inconclusive: 28.2 µM [quencher, side channel, single point]",
CCN(CC)c1ccc(/C=N/NC(=O)C(O)c2ccccc2)cc1 (stereo not drawn),"inconclusive: 39.8 µM [quencher, side channel, single point]",
CC(C(=O)Nc1ccc(O)c(C(=O)O)c1)N1C(=O)/C(=C/c2cccs2)SC1=S (stereo not drawn),"inconclusive: 25.1 µM [quencher, side channel, single point]",
C=CCN1C(=O)c2ccc(C(=O)N(C)CC(=O)Nc3cccc(F)c3)cc2C1=O,"inconclusive: 28.2 µM [quencher, single point]",
Cn1c(CCNS(=O)(=O)c2ccccc2)nc2cc([N+](=O)[O-])ccc21,"inconclusive: 39.8 µM [quencher, side channel, partial curve, poor fit]",
COc1ccc(N=C(C)C2=C(O)c3ccccc3C2=O)cc1,"inconclusive: 12.6 µM [quencher, side channel, partial curve]",
CSc1nnc(C(C)(C)C)c(=O)n1/N=C/c1c(O)ccc2ccccc12,inactive,
O=C(CCN1C(=O)c2ccccc2C1=O)NCCC1=CCCCC1,inactive,
CCOC(=O)c1nnn(-c2nonc2N)c1CSc1nnc(N)s1,inactive,
CC(=O)Nc1cc(C(N)=O)c(Cl)cc1Cl,"inconclusive: 39.8 µM [fluorescent, side channel, single point]",
CC(=O)Nc1ccc(NC(=O)Cc2sc(-c3cccnc3)nc2-c2ccc(C)cc2)cc1,inactive,
O=C(O)Cn1cc(/C=C2/NC(=O)N(c3ccc(Cl)cc3)C2=O)c2ccccc21,"inconclusive: 39.8 µM [quencher, side channel, partial curve]",
Cc1cccnc1NC(=S)Nc1ncccc1C,inactive,

Structure (SMILES),Potency,"activity change, negative = inhibition"
S=c1[nH]nc(-c2cc(-c3ccccc3)n[nH]2)n1/N=C/c1ccccc1,inactive,
O=C1CC(NNc2ccccc2)C(=O)N1c1ccc(N2CCCCC2)cc1 (stereo not drawn),"inconclusive: 3.55 µM [quencher, side channel, full curve]",
CCOC(=O)C1(CCOc2ccccc2)CCN(Cc2ccc(OC)c(O)c2)CC1,inactive,
O=C(NCc1ccco1)Nc1ccc2snnc2c1,"inconclusive: 50.1 µM [inhibitor, partial curve]",
CC(=O)c1ccc(NC(=O)c2ccc3c(c2)C(=O)N(c2ccccn2)C3=O)cc1,"inconclusive: 15.8 µM [quencher, side channel, partial curve]",
O=[N+]([O-])c1cc(S(=O)(=O)NCCN2CCOCC2)ccc1Cl,"inconclusive: 14.1 µM [quencher, side channel, partial curve]",
O=C1C2Sc3[nH]c(=O)sc3C(c3ccccc3)C2C(=O)N1c1ccccc1 (stereo not drawn),inactive,
COCc1c(C(=O)N/N=C(/C)c2ccccc2)nnn1-c1nonc1N,inactive,
CCOc1cc(N2CCOCC2)c(OCC)cc1NC(=O)Cc1cccc2ccccc12,"inconclusive: 22.4 µM [quencher, side channel, partial curve]",
c1cncc(Oc2cccc(Oc3cccnc3)c2)c1,"inconclusive: 1.78 µM [quencher, side channel, partial curve]",
COc1ccc(C(=O)Nc2ccc(Cl)cc2C(=O)NCc2ccco2)cc1,"inconclusive: 28.2 µM [fluorescent, side channel, partial curve]",
O=C(NC1CCCCC1)C(c1ccccc1F)N(Cc1ccco1)C(=O)c1ccccn1 (stereo not drawn),inactive,
CC(C)(C)NC(=O)C(=O)NNC(=O)c1cccc([N+](=O)[O-])c1,"inconclusive: 25.1 µM [quencher, side channel, partial curve]",
O=C1NC(=S)N/C1=C/c1cc([N+](=O)[O-])ccc1O,"inconclusive: 12.6 µM [quencher, side channel, partial curve]",
O=c1cc(N2CCCC2)c2ccccc2o1,"inconclusive: 6.31 µM [fluorescent, side channel, single point]",
CN1C(=O)/C(=C\c2ccc(N(C)C)cc2)OC1=S,inactive,
CCOc1ccccc1CNCCO,"inconclusive: 0.355 µM [fluorescent, side channel, partial curve]",
O=C(C[n+]1ccc(C(=O)N/N=C/c2ccc(O)cc2)cc1)c1ccccc1,"inconclusive: 14.1 µM [quencher, side channel, partial curve]",
Cc1cccc(NC(=O)c2cc3ccccc3o2)c1,"inconclusive: 39.8 µM [quencher, side channel, single point]",
O=[N+]([O-])c1ccc(S(=O)(=O)Nc2ccc3c(c2)OCCO3)cc1,"inconclusive: 15.8 µM [quencher, side channel, partial curve]",
CCCCCCCCNC(=O)/C(C#N)=C/c1ccc(SC)cc1,"inconclusive: 63.1 µM [inhibitor, single point]",

Structure (SMILES),Potency,"activity change, negative = inhibition"
CCOC(=O)N1CCC(NC(=O)c2ccc3c(c2)N(Cc2ccc(F)cc2)CCS3)CC1,"inconclusive: 39.8 µM [quencher, side channel, single point]",
C=CCOc1c(Cl)cc(CNCCC)cc1Cl,inactive,
CC(C)CCN1CCN(CC(c2ccccc2)c2ccccc2)CC1CCO (stereo not drawn),inactive,
COc1ccc(CCNC(=O)c2cc3c(=O)n4ccccc4nc3n(C3CCCCC3)c2=N)cc1OC,"inconclusive: 15.8 µM [quencher, partial curve]",
CC(C)OC(=O)Cn1c(-c2ccccc2)c(-c2ccccc2)nnc1=O,"inconclusive: 12.6 µM [quencher, side channel, partial curve]",
Nc1c(C(=O)Nc2ccc3c(c2)OCCO3)nnn1CCc1ccccc1,inactive,
Cc1noc(NS(=O)(=O)c2ccc(NC(=O)C(Cl)(Cl)Cl)cc2)c1C,inactive,
COc1cc(/C=C2\SC(=S)N(NC(=O)c3cccnc3)C2=O)ccc1O,"inconclusive: 14.1 µM [quencher, side channel, partial curve]",
O=C(C1CCN(S(=O)(=O)c2cccc3nonc23)CC1)N1CCCCC1,"inconclusive: 12.6 µM [quencher, side channel, partial curve]",
Cc1c(C)c2cc(Cl)c(O)c(CN3CCCC(C)C3)c2oc1=O (stereo not drawn),inactive,
CC(=O)c1cc2c(cc1NC(=O)C1CC1)OCO2,"inconclusive: 39.8 µM [quencher, side channel, single point]",
COc1cc2[nH]c(=S)nc(Nc3ccc(NC(C)=O)cc3)c2cc1OC,"inconclusive: 31.6 µM [quencher, side channel, single point]",
CN=c1oc2ccc(Cl)cc2cc1C(N)=O,"inconclusive: 7.94 µM [quencher, side channel, partial curve]",
Cc1cc2c(c(=O)n1Cc1ccccc1)C1O[C@](CCCCN3C(=O)c4ccccc4C3=O)(Cc3ccccc31)O2,,inactive: 41.3% [at 11.5 µM]
O=C(CS(=O)c1ccc(C(F)(F)F)cc1[N+](=O)[O-])Oc1ccc(Cl)cc1 (stereo not drawn),"inconclusive: 31.6 µM [quencher, side channel, partial curve]",
NC(=O)CC(NC(=O)c1ccccc1)c1ccc(N2CCCCCC2)c([N+](=O)[O-])c1 (stereo not drawn),,inconclusive: 36% [activator]
CNC(=O)C(=O)Nc1nc(C23CC4CC(CC(C4)C2)C3)cs1,inactive,
CCn1c(=O)c2cc(C(=O)NCC(OC)OC)sc2c2ccccc21,"inconclusive: 12.6 µM [quencher, partial curve]",
COc1ccccc1NS(=O)(=O)c1cccc(N=C2N=C(N)c3ccccc32)c1,"inconclusive: 0.158 µM [quencher, side channel, full curve, poor fit]",
Cc1cc(N)n(-c2nc(-c3cccnc3)nc3ccccc23)n1,"inconclusive: 25.1 µM [quencher, side channel, single point]",
O=C(NCc1ccccc1)C(Cc1ccccc1)NS(=O)(=O)c1cccc2nsnc12 (stereo not drawn),"inconclusive: 15.8 µM [quencher, partial curve]",
